Reference: the RNAGym collection of RNA variant scans (doi:10.7554/elife.90254)
Read counts are not given, so values of variants with three or more changes are uncertain.

B1: LINE1-mini (parent)
chain: GGCAGAGCUCAACACAGCGUGGCAAAGUGGCUGUGGCUAGACUGCC

Variants of: B1
Test: self-cleavage, relative activity (ratio to wild type); higher = more cleavage; in vitro, sequencing; the parent is a self-cleaving ribozyme

Question: For GGCAGAGCCCAACACAGCUUGGCACAGUGCCUGUGGCCAGACUGCC [U9C G19U A25C G30C U38C], which self-cleavage is on record?
Answer: 0.01

Question: Which self-cleavage does the source give for GGCAGAGCUCAACGCAGCGUUGCAUAGUGGCUGGGGCGAGACAGCC [A14G G21U A25U U34G U38G U43A] here?
Answer: 0.01

Question: For GGCCGAGCUCAACACAGCGUGGCAAAGAGACUGUCGCUUGAAUGCC [A4C U28A G30A G35C A39U C42A], which self-cleavage is on record?
Answer: 0.03

Question: For GGUAGAGCUCAACAUGGCGUGGCAAAGUGGCAGUGGCUAGACUGCA [C3U C15U A16G U32A C46A], which self-cleavage is on record?
Answer: 0.02

Question: For GCCAGACCUCAACACAGCGUGGCAAAGUGGCUGUGGCUAGACUGGC [G2C G7C C45G], which self-cleavage is on record?
Answer: 0.51

Question: Which self-cleavage does the source give for GGCAGAGCUCAGCACAGCGUGGGAAAGUGGCAGUGGCUAGACUGUC [A12G C23G U32A C45U] here?
Answer: 0.07

Question: Which self-cleavage does the source give for GGCAGAGCUCAACACUGCGUGGCCAAGUGGCUGUGGAUAGACUGCC [A16U A24C C37A] here?
Answer: 0.08

Question: For GACAGAGCUCAACACUGCGUGGCAAAGUGGCUGUGGCUAGAAAGCC [G2A A16U C42A U43A], which self-cleavage is on record?
Answer: 0.13

Question: With GGCAGACCUUAACACAGCGAGCCAAAAUAGCUGUGGCUAGACUGCC [G7C C10U U20A G22C G27A G29A] as the variant, how does the self-cleavage read?
Answer: 0.04

Question: Which self-cleavage does the source give for GGCAGAGCUCAGCACGACGUGGCAAAGUGGCUCUGGCUAGACUGCC [A12G A16G G17A G33C] here?
Answer: 0.03

Question: With GGCAGAGCACAACACAGUGUGGCAAAGUGGCUGUGACUUGACUGCC [U9A C18U G36A A39U] as the variant, how does the self-cleavage read?
Answer: 1.02

Question: Which self-cleavage does the source give for GGCAGAGCUCAACACAGCGUGGCAAAGUGACUGUGGCUCCACUGCC [G30A A39C G40C] here?
Answer: 0.06

Question: Which self-cleavage does the source give for GGUAGAGCUCAACACAGCGUGGCAAAGUGGCUGUGGCUAGACUUGC [C3U G44U C45G] here?
Answer: 0.11

Question: With GGCAGAGCUUAACACAGCGUGGCAAAGUGGCGGUGGCUUGACUGCC [C10U U32G A39U] as the variant, how does the self-cleavage read?
Answer: 0.05

Question: Which self-cleavage does the source give for GGCAGAGCUCCACACAGCGUGGCAAAGGGACUGCGGCUAGACUGCC [A11C U28G G30A U34C] here?
Answer: 0.02

Question: With GGUAGAGCUCCACAUAGCCUGUCAAAGUGGCUGUGACUAGAAUUAC [C3U A11C C15U G19C G22U G36A C42A G44U C45A] as the variant, how does the self-cleavage read?
Answer: 0

Question: Which self-cleavage does the source give for AGCAGAGCUCAACACAGCGUCGCAAAGUGGCUGUGGCUAAACUGCC [G1A G21C G40A] here?
Answer: 0.15

Question: With GCCAGAGCUCAACGCAGGGUAGGAAAGUGGCUGUGGCUAGACUGCC [G2C A14G C18G G21A C23G] as the variant, how does the self-cleavage read?
Answer: 0.02

Question: For GGCAGAGCUCAACACAGCGUGACAAACUGGCUGUGGCUAGACCGCC [G22A G27C U43C], which self-cleavage is on record?
Answer: 0.04

Question: With UGCAGAUCUCAACACAGCGUGGCAAAGUGGCUGUGGCUAGACUGGC [G1U G7U C45G] as the variant, how does the self-cleavage read?
Answer: 0.13

Question: With GGCAGAGCUCGACACAGCGUGGCGAAGUGGCUGUGGUUAGACUGCC [A11G A24G C37U] as the variant, how does the self-cleavage read?
Answer: 0.01

Question: For GGCAGAGCGCACCAAAGCGUGGCAAAGUGGAUGUGGCUAGACUGCC [U9G A12C C15A C31A], which self-cleavage is on record?
Answer: 0

Question: Which self-cleavage does the source give for GGCAGAGCUCAACACAGCGUGGCAAAGUGUCUGUGGCCAAACUGCC [G30U U38C G40A] here?
Answer: 0.19

Question: For GGCAGAGCUCAACACAGCGUGGCAAAGUGGCUCUGGCUAGGCUCCU [G33C A41G G44C C46U], which self-cleavage is on record?
Answer: 0.06

Question: With GGCAGAGCUCAACAUUGCUUGGCAACGUGGCUGUGGCUAGACUGCC [C15U A16U G19U A26C] as the variant, how does the self-cleavage read?
Answer: 0.11

Question: With GGCAGAGCUCAACGCAGCGUGGCAAAGAGGCUGUGGCUAGACGGCC [A14G U28A U43G] as the variant, how does the self-cleavage read?
Answer: 0

Question: For UGCAGAGCUCAGCACAGCGUCGCAAAGAGGCUGUGGCUAGACUGCC [G1U A12G G21C U28A], which self-cleavage is on record?
Answer: 0

Question: For GGCAGAACUAAACACAGCGUUGCAAAGUUGGUGUGGCUAGACUGCC [G7A C10A G21U G29U C31G], which self-cleavage is on record?
Answer: 0.04

Question: For GGCAGAGAUCAACACAGCGUGGCAAAGUGGCUGUGGCUAUACGGAC [C8A G40U U43G C45A], which self-cleavage is on record?
Answer: 0.01

Question: With GGAAGAGCUCAACACAGUGUGGCAAACUGGCUGUGUCUAGACUGCC [C3A C18U G27C G36U] as the variant, how does the self-cleavage read?
Answer: 1.34

Question: For GGCAGAGCUCAACACAGCAAGGCAAAGUGGCUGUUGCUAGACUGCC [G19A U20A G35U], which self-cleavage is on record?
Answer: 0.06

Question: For GGCAGAGUUCAACAUAGAGUGGCAAAGUGGCUUUGGCUAGACUGCC [C8U C15U C18A G33U], which self-cleavage is on record?
Answer: 0.24

Question: Which self-cleavage does the source give for GGCAGAGCUCAACACAGCGUGGCGAAGUGGAUGUGGAUAGACUGCC [A24G C31A C37A] here?
Answer: 0.17

Question: Which self-cleavage does the source give for GGCAGAGCACCACACAGCGUGGCAAUGUGGCUGUGGCUAGACUGCC [U9A A11C A26U] here?
Answer: 0.02

Question: Which self-cleavage does the source give for GGAAGAGCUCAACACAGCGCGGCAAAGUGGCUGUGCCUAGACUGCC [C3A U20C G36C] here?
Answer: 0.27

Question: With GCCAGAGCUCAACACAGGGUGGCAAAGUAGCUGUGGCUAGACUGCC [G2C C18G G29A] as the variant, how does the self-cleavage read?
Answer: 0.21

Question: With GGCACAGCUAAACACAGCGUGGCAAAGUGGCUGUGGCUACACUGCC [G5C C10A G40C] as the variant, how does the self-cleavage read?
Answer: 0.05

Question: Which self-cleavage does the source give for GGAAGAGCUCAACACAGCGUUGCAAAGUGGCUGUGGCUAGACUCCC [C3A G21U G44C] here?
Answer: 0.9

Question: Which self-cleavage does the source give for GGCAGAUCUCAACACAGCGUGGCAAAGUCGCUGUGGCGAGACUACC [G7U G29C U38G G44A] here?
Answer: 0.01

Question: For GGAAUAGCUAAACACAGCGUGGCAAAGUGGUUGUGGCUAGACUGCC [C3A G5U C10A C31U], which self-cleavage is on record?
Answer: 0.02

Question: For GGCAGAGCUUAACACAGCGUGGCAUGGUGGCUGUGGCUAGACUGUC [C10U A25U A26G C45U], which self-cleavage is on record?
Answer: 0.1

Question: Which self-cleavage does the source give for GGCAGAUCUCAACACAGCGUGCCGAAGUGGCUGGGGCUAGACUGCC [G7U G22C A24G U34G] here?
Answer: 0.05

Question: With GGCAGAGCUCAACACAGCGUGGCAACCUGGCUGUGUCUAGACUGCC [A26C G27C G36U] as the variant, how does the self-cleavage read?
Answer: 0.02

Question: For GGCAGAGCUAAACACAGCGUGGCAAAGUAGCUGUGGCUAGAAUGCC [C10A G29A C42A], which self-cleavage is on record?
Answer: 0.02

Question: With GGCAGAGCUCAACACAGCGCUGCAAAGUUGCUGUUGCUAAACUGCC [U20C G21U G29U G35U G40A] as the variant, how does the self-cleavage read?
Answer: 0.03

Question: Which self-cleavage does the source give for GGCAGAGCUCAACAUAGCGUGGCAAAGUGGCUCUGGGGAGACUGCC [C15U G33C C37G U38G] here?
Answer: 0.03

Question: Which self-cleavage does the source give for GGCAGAGCUCAACACAGGGUGGUAAAAUGGCCGUGGCUAGACUGCU [C18G C23U G27A U32C C46U] here?
Answer: 0.03

Question: Which self-cleavage does the source give for GGCAGAGUUCAACACAGCGUGGCCAAGAGGCUGUGGCUAGACUGCC [C8U A24C U28A] here?
Answer: 0.09

Question: For GGCAGAGCUCAACACAGCGUGGCAACGUGGCUGUUGUUAGACUGCU [A26C G35U C37U C46U], which self-cleavage is on record?
Answer: 0.04

Question: Which self-cleavage does the source give for GGCACAGCUAACCAAGGCGUGGCAAAGUGGCUGUGCCUAGACGGCC [G5C C10A A12C C15A A16G G36C U43G] here?
Answer: 0

Question: With GGCAGGGCUCAACACAGCGUGGCAAAGUGGCCGUGGCUAGAUUGCC [A6G U32C C42U] as the variant, how does the self-cleavage read?
Answer: 0.07

Question: For GGCAGAGCUCAACACAGAGUGGCAAAGUGGCUCUGCCUAGACUGCC [C18A G33C G36C], which self-cleavage is on record?
Answer: 0.01

Question: For GGCAGUGCUCAACACAGCGUGGCACAGUGGCCGUGGCUAGACUGCC [A6U A25C U32C], which self-cleavage is on record?
Answer: 0.05

Question: Which self-cleavage does the source give for GGCAGAGCGCAACACAUCGUGGCAAAGUGGCUGUGGUUAGAGUGCC [U9G G17U C37U C42G] here?
Answer: 0.02

Question: With GGCAGAGCUCUACACACCGUGGCAAAGUGGCGUUGGCUAGACUGCC [A11U G17C U32G G33U] as the variant, how does the self-cleavage read?
Answer: 0.03

Question: With GGCAGAGCUCAUGACAGCGUGGCAAAGUGGCUGUUGCUAGACUGCC [A12U C13G G35U] as the variant, how does the self-cleavage read?
Answer: 0.68
